Experimental findings from the supplement of paper PMC8183993 are described below.

Structures can show the parent of a compound that is named as a salt. ± gives the standard deviation of the averaged measurements. The full ranking holds about 3,200 compounds; the median of “nuclei count (viability) relative to DMSO” is about 99, and the lowest 2% start at about 16. The list shows a part of the results.

This assay has as its system U2OS. Nature of the assay: nuclei count (viability) relative to DMSO (% of DMSO); higher = more viable cells. Particulars: 10 µM; 24 h. Here is the method:
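Primary image-based screen in U2OS cells: compounds at 10 uM for 24 h, then a 1 h o-propargyl-puromycin (OPP) pulse, click labelling, and high-throughput microscopy. Mean cytoplasmic OPP intensity and nuclei count were normalised to DMSO wells within each plate (DMSO = 100) and averaged over triplicate plates.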
Regarding `Clc1cnccn1` [2-Chloropyrazine], the nuclei count came out at 112. To `Cc1cc2c(cc1S(N)(=O)=O)S(=O)(=O)CCC2` [Meticrane] belongs 108. To `CN(C)/N=N/c1[nH]cnc1C(N)=O` [Dacarbazine] belongs 98.9; to `CCCCCCCCc1ccc(-c2ccc(C(=O)O)cc2)cc1`, 108. To `CC[N+](C)(C)Cc1ccccc1Br` [Bretylium tosylate] belongs 104. `C[N+](C)(C)CCCCCC[N+](C)(C)C` [Hexamethonium dibromide dihydrate] had a nuclei count of 95.9. `CC1C(=O)OC2C(O)C34C5CC(C(C)(C)C)C36C(OC(=O)C6O)OC4(C(=O)O5)C12O` (stereo unspecified) [Ginkgolide B] displayed a nuclei count of 95.

Regarding `O=c1[nH]ccc2c(S(=O)(=O)N3CCCNCC3)cccc12` [HA 1100 hydrochloride], the nuclei count was 112. To `CN1C(C)(C)CCCC1(C)C` [Pempidine tartrate] belongs 105; to `Cn1cc(-c2ccc3ncc(Cc4ccc5ncccc5c4)n3n2)cn1`, 97 ± 2.9; to `CC1(C)Oc2ccc(C#N)cc2[C@@H](N2CCCC2=O)[C@@H]1O` [Levcromakalim], 104. To `Cc1onc(-c2c(Cl)cccc2Cl)c1C(=O)N[C@@H]1C(=O)N2[C@@H]1SC(C)(C)[C@@H]2C(=O)O` [Dicloxacillin sodium salt hydrate] belongs 97.9; to `Cc1cc(NC(=O)Nc2ccc(N(C)C)cc2)c2cc(F)cc(F)c2n1`, 87.5. In the case of `CCOC(=O)[C@H](CCc1ccccc1)N[C@@H](C)C(=O)N1Cc2ccccc2C[C@H]1C(=O)O` [Quinapril HCl], the nuclei count is 106. `CC(CCc1ccccc1)NCC(O)c1ccc(O)c(C(N)=O)c1` (stereo unspecified) [Labetalol hydrochloride] displayed a nuclei count of 106. To `O=C(O)c1cccnc1Nc1cccc(C(F)(F)F)c1` [Niflumic acid] belongs 97.7 ± 6.6; to `Cc1oncc1C(=O)Nc1ccc(C(F)(F)F)cc1` [Leflunomide], 108 ± 3.4; to `O=c1[nH]c2cc(C(F)(F)F)c(N3CCOCC3)cc2n(CP(=O)(O)O)c1=O`, 102. The result for `COc1ccc(C(Cl)=C(c2ccc(OC)cc2)c2ccc(OC)cc2)cc1` [Chlorotrianisene] reads 74.4.

As to `O=C(O)COc1ccc(OCCNC[C@H](O)COc2ccccc2)cc1` [ICI 215,001 hydrochloride], the nuclei count came out at 107. On to `O=C[C@H](O)[C@@H](O)[C@H](O)CO` [Xylose], for which the nuclei count was 97.8.

In the case of `Cc1cc(C(C)(C)C)c(O)c(C)c1CC1=NCCN1` [Oxymetazoline hydrochloride], the nuclei count was found to be 106 ± 3.4.

On to `CN(C)CCCN1c2ccccc2Sc2ccccc21` [Promazine hydrochloride], for which the nuclei count turned out to be 100.

For the molecule `NS(=O)(=O)c1cc(C(=O)O)cc(N2CCCC2)c1Oc1ccccc1` [Piretanide], the nuclei count was found to be 110. `CC(C)(C(=O)O)c1ccc(C(O)CCCN2CCC(C(O)(c3ccccc3)c3ccccc3)CC2)cc1` (stereo unspecified) [Fexofenadine HCl] had a nuclei count of 94. To `CC(C)(C(=O)O)c1ccc(C(O)CCCN2CCC(C(O)(c3ccccc3)c3ccccc3)CC2)cc1` (stereo unspecified) [Fexofenadine hydrochloride] belongs 104. With `O=c1cc(N2CCOCC2)oc2c(-c3cccc4c3sc3ccccc34)cccc12`, the nuclei count was 92.7. Regarding `NC(N)=S` [Thiourea], the nuclei count amounted to 103. For the molecule `COc1cccc(-c2cc(NCc3ccc4c(c3)OCO4)nc(N)n2)c1`, the nuclei count turned out to be 19.1. Molecule `COc1ccc([C@@H]2CC(=O)c3c(O)cc(O[C@@H]4O[C@H](CO[C@@H]5O[C@@H](C)[C@H](O)[C@@H](O)[C@H]5O)[C@@H](O)[C@H](O)[C@H]4O)cc3O2)cc1O` [Hesperidin] had a nuclei count of 100 ± 1.3. The molecule `COC(c1ccccc1)(c1ccccc1)[C@H](Oc1nc(C)cc(C)n1)C(=O)O` [Ambrisentan] gave a nuclei count of 107 ± 3.6. As for `COC(=O)C1=C(C)NC(C)=C(C(=O)OCCN2CCN(C(c3ccccc3)c3ccccc3)CC2)C1c1cccc([N+](=O)[O-])c1` (stereo unspecified) [Manidipine (Manyper)], the nuclei count is 98.6. Turning to `Cc1c(C)c2c(c(C)c1O)CCC(C)(COc1ccc(CC3SC(=O)NC3=O)cc1)O2` (stereo unspecified) [Troglitazone], the nuclei count amounted to 110 ± 1.9. The molecule `Cc1ccc(O)c(N=Nc2ccccc2)n1` had a nuclei count of 97.6. To `C[N+]1(C)[C@@H]2CC[C@H]1C[C@@H](OC(=O)C(O)c1ccccc1)C2` (stereo partly specified) [Homatropine Methylbromide] belongs 103.

As for `C[N+]1(C)[C@@H]2C[C@@H](OC(=O)C(O)(c3cccs3)c3cccs3)C[C@H]1[C@@H]1O[C@@H]12` [Tiotropium Bromide hydrate], the nuclei count was 102. Turning to `CC(C(=O)O)c1ccc2c(c1)Cc1cccnc1O2` (stereo unspecified) [Pranoprofen], the nuclei count amounted to 95.3. The result for `CSc1ccc2c(c1)C(N1CCN(C)CC1)Cc1ccccc1S2` (stereo unspecified) [Methiothepin maleate] reads 91.46 ± 0.13; that for `COC(=O)C[C@H](NC(=O)[C@H](C)NC(=O)[C@@H](NC(=O)OCc1ccccc1)C(C)C)C(=O)CF`, 106; that for `O=C(/C=C/c1ccc2ccccc2n1)c1ccncc1`, 11.3.

The molecule `CC(=O)Nc1ccccc1` [Acetanilide (Antifebrin)] displayed a nuclei count of 102.

As to `COc1ccc2ccc(=O)oc2c1CC=C(C)C` [Osthole (Osthol)], the nuclei count was 74.8. Take `O=C(Nc1nc2cccc(-c3ccc(CN4CCS(=O)(=O)CC4)cc3)n2n1)C1CC1` [Filgotinib£¬GLPG0643)]: the nuclei count turned out to be 80.6. The result for `N=C(N)NS(=O)(=O)c1ccc(N)cc1` [Sulfaguanidine] reads 106. Turning to `CC(=O)Oc1ccccc1C(=O)O` [Acetylsalicylic acid], the nuclei count turned out to be 99.9.

The molecule `CCCCNC(=O)[C@@H]1Cc2ccccc2N1C(=O)[C@@H](N)CC` [Butabindide oxalate] registered a nuclei count of 102. To `CNS(=O)(=O)CCc1ccc2[nH]cc(C3CCN(C)CC3)c2c1` [Naratriptan HCl] belongs 108; to `CC(C)=CC[C@@H](O)C1=CC(=O)c2c(O)ccc(O)c2C1=O` [Shikonin], 89.3. To `NC(=O)c1cc[n+](CC2=C(C(=O)[O-])N3C(=O)[C@@H](NC(=O)[C@@H](c4ccccc4)S(=O)(=O)O)[C@H]3SC2)cc1` [Cefsulodin sodium salt] belongs 102; to `CCCCCC#CCC#CCC#CCC#CCCCC(=O)O` [5,8,11,14-Eicosatetraynoic acid], 98.5. To `C[C@]12CC[C@H](O)CC1=CC[C@@H]1[C@@H]2CC[C@]2(C)C(n3cnc4ccccc43)=CC[C@@H]12` [Galeterone (TOK-001)] belongs 105.
